About 540 (0.36%) of roughly 150,000 compounds showed an effect of 50% or more. Some of the results follow.

For the assay, the system named is Plasmodium falciparum. Put plainly: Primary screen in NF54 nanoGlo assay, in single point, at 2uM, 72h; a lower Z score goes with more inhibition. It counts as functional, Erythrocyte. To be noted: timepoint 72 hour.
`CC[C@H](NC(=O)C(=O)Nc1cnc2ccccc2c1)c1ccccc1O`: the % Inhibition (in general, the change of the read-out against control, counted positive when it falls) is -12% and the Z score came to 2.15.
Turning to `Cc1ccsc1CCNC(=O)[C@H]1CC[C@H](Nc2cnccn2)CC1`, the “% Inhibition” value is given as -9% and the Z score stood at 1.12.
Turning to `O=C(C1=COCCO1)N(CCN1CCOCC1)c1nc2ccc(F)cc2s1`, the “% Inhibition” value is given as -13% and the Z score is 1.61.
The matching figures for `C/C=C/CN1CCCn2nc(CCC(=O)N3CCN(C)CC3)cc2C1`: 1% and -0.16.
The matching figures for `CCN1CCN(C(=O)CCC2CCN(Cc3ccc(OC)cc3F)CC2)CC1`: 7% and -0.92.
The matching figures for `O=C(C[C@H]1C(=O)NCCN1C1Cc2ccccc2C1)NCCOCCO`: -16% and 2.05.
Take `Cc1c(CN2CCc3ccccc32)cnn1C`: the “% Inhibition” value came to 37% and the Z score was -0.96.
In the same order, the values of `CC1=NO[C@](C)(C(=O)N2CCc3[nH]nc(-c4ccccc4F)c3C2)C1` are -17% and 1.65.
The matching figures for `CCOc1ccccc1NC(=O)c1c(-c2ccccc2)c(-c2ccccc2)n[nH]c1=O`: -4% and 0.51.
In the same order, the values of `COc1ccnc(NS(=O)(=O)c2ccc3c(c2)CCCC3)c1` are 2% and -0.38.
As to `O=C1CC(c2ccccc2)N2N=C(N3C(=O)C4CCCCC4C3=O)NC2=N1` (stereo not drawn), the “% Inhibition” value is on record as 5% and the Z score is given as -0.48.
The matching figures for `CNC(=O)CC1CCC(C(F)(F)F)CC1` (stereo not drawn): -3% and 0.63.
The matching figures for `c1ccc([C@@H]2CCCN2Cc2cnn(-c3ccccc3)n2)cc1`: -2% and 0.22.
The matching figures for `Cn1cc(N2C[C@@H](c3nc(-c4cccs4)no3)CCC2=O)cn1`: -3% and 0.47.
As for `Cc1c(C(=O)N2CCCCC2)c(S(=O)(=O)N2CCN(C)CC2)c(C)n1C`, the “% Inhibition” value is -7% and the Z score amounted to 1.41.
The matching figures for `Cc1ccc(NC(=O)CC2CCN(S(=O)(=O)c3ccc(Cl)s3)CC2)cc1`: -12% and 1.59.
In the same order, the values of `C[C@H]1CCN(C(=O)CN(C)C(=O)c2cccs2)CCS1(=O)=O` are -8% and 1.6.
In the same order, the values of `C=CCOc1ccc(C(=O)N[C@H]2CCN(C3CC3)C2=O)cc1` are -9% and 1.22.
`O=C1OC[C@@H]2CCN(Cc3ccccn3)Cc3ccc(F)cc3N12`: the “% Inhibition” value is reported as 0% and the Z score is on record as -0.05.
For `COc1ncccc1C(=O)N1C2CCC1CC(F)C2` (stereo not drawn), the “% Inhibition” value is -5% and the Z score was 0.64.
In the same order, the values of `Cc1nccn1C[C@H]1CCCN(C(=O)Cc2cccnc2)C1` are -22% and 2.37.
In the same order, the values of `CN1CCC[C@H](C(=O)NCCc2nc3ccccc3o2)C1` are 2% and -0.4.
The matching figures for `CC1CN(C(CNCc2cnn(C)c2)c2cccs2)CCO1` (stereo not drawn): -9% and 0.92.
Regarding `CC(C)(C(=O)N1CCn2c(Cc3cccc(F)c3)nnc2C1)n1cc(N)cn1`, the “% Inhibition” value was -3% and the Z score was found to be 0.55.

(Values after ChEMBL document CHEMBL4888484, “Replenishing the malaria drug discovery pipeline: Screening and hit evaluation of the MMV Hit Generation Library 1 (HGL1) against asexual blood stage Plasmodium falciparum ,using a nano luciferase reporter read-out” (2022).)
